# Source: the supplement of paper PMC4604168 (melanoma cell lines)
# This is one part of the list. Single values are uncertain, as repeats are few or missing.
# Tests used:
# Experiment in all cases: cell count relative to DMSO control; melanoma cells; higher = more viable cells
# Settings in all cases: library dose: standard library concentration; 72 h
# [1] = tested on: G361
# [2] = tested on: IPC-298
# [3] = tested on: IST-MEL1
# [4] = tested on: LB2518-MEL
# [5] = tested on: LOXIMVI
# [6] = tested on: MEL-HO
# [7] = tested on: MZ2-MEL
# [8] = tested on: MeWo
# [9] = tested on: RPMI7951
# [10] = tested on: RVH-421
# 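Note: cells treated in 1,536-well plates, then fixed and DAPI-stained, with nuclei counted from automated high-throughput microscope images.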
smiles,measurement,setting,value
"C[C@]1(c2nc3c(C(N)=O)cccc3[nH]2)CCCN1 [Veliparib] + O=C1NC(=O)/C(=C/c2ccc(-c3ccc(F)cc3O)o2)S1 [AS252424] (first compound 7 µM, partner dose 5 µM)",cell count,[1],89.7%
same,cell count,[2],85.4%
same,cell count,[3],97.2%
same,cell count,[4],80%
same,cell count,[5],73.7%
same,cell count,[6],81.5%
same,cell count,[7],88.3%
same,cell count,[8],81.1%
same,cell count,[9],105%
same,cell count,[10],94%
"OCCn1cc(-c2cnc3nnn(Cc4ccc5ncccc5c4)c3n2)cn1 + CCCCCCCCCCCC1=C(O)C(=O)C=C(O)C1=O [Embelin] (first compound 5 µM, partner dose 6 µM)",cell count,[1],87.9%
same,cell count,[2],102%
same,cell count,[3],69.7%
same,cell count,[4],96.8%
same,cell count,[5],286%
same,cell count,[6],71.7%
same,cell count,[7],91%
same,cell count,[8],113%
same,cell count,[9],95.9%
same,cell count,[10],98.8%
"CN(C)S(=O)(=O)c1ccc2c(c1)/C(=C/c1cc3c([nH]1)CCCC3)C(=O)N2 + COc1cc2ncnc(Nc3ccc(Oc4ccccc4)cc3)c2cc1OC [SrcI1] (first compound 2 µM, partner dose 10 µM)",cell count,[1],27.9%
same,cell count,[2],51.9%
same,cell count,[3],70.5%
same,cell count,[4],94.8%
same,cell count,[5],121%
same,cell count,[6],71.7%
same,cell count,[7],67.1%
same,cell count,[8],56.8%
same,cell count,[9],31.4%
same,cell count,[10],88.8%
"C=CCn1c(=O)c2cnc(Nc3ccc(N4CCN(C)CC4)cc3)nc2n1-c1cccc(C(C)(C)O)n1 + CCc1ccc(CCOc2ccc(CC3SC(=O)NC3=O)cc2)nc1 [pioglitazone] (first compound 0.1 µM, partner dose 10 µM)",cell count,[1],94.4%
same,cell count,[2],84.6%
same,cell count,[3],98.6%
same,cell count,[4],65.2%
same,cell count,[5],82.9%
same,cell count,[6],83%
same,cell count,[7],97.6%
same,cell count,[8],66%
same,cell count,[9],68.5%
same,cell count,[10],78.7%
"C=CCn1c(=O)c2cnc(Nc3ccc(N4CCN(C)CC4)cc3)nc2n1-c1cccc(C(C)(C)O)n1 + CCCCCCCCCCCC1=C(O)C(=O)C=C(O)C1=O [Embelin] (first compound 0.1 µM, partner dose 6 µM)",cell count,[1],53.1%
same,cell count,[2],49.5%
same,cell count,[3],66.7%
same,cell count,[4],52.7%
same,cell count,[5],84.3%
same,cell count,[6],72.2%
same,cell count,[7],76.2%
same,cell count,[8],77.1%
same,cell count,[9],71.2%
same,cell count,[10],62.4%
"CO[C@@H]1[C@H](N(C)C(=O)c2ccccc2)C[C@H]2O[C@]1(C)n1c3ccccc3c3c4c(c5c6ccccc6n2c5c31)C(=O)NC4 [Midostaurin] + CCN(CC)CCCCNc1ncc2cc(-c3cc(OC)cc(OC)c3)c(NC(=O)NC(C)(C)C)nc2n1 [PD173074] (first compound 0.4 µM, partner dose 0.5 µM)",cell count,[1],65.9%
same,cell count,[2],56.8%
same,cell count,[3],8.33%
same,cell count,[4],51.7%
same,cell count,[5],49.5%
same,cell count,[6],75.4%
same,cell count,[7],47.9%
same,cell count,[8],81%
same,cell count,[9],59.6%
same,cell count,[10],23.8%
"CN(C)S(=O)(=O)c1ccc2c(c1)/C(=C/c1cc3c([nH]1)CCCC3)C(=O)N2 + COc1ccc(-c2ccc3c(N4CCOCC4)nc(N4C[C@@H](C)O[C@@H](C)C4)nc3n2)cc1CO [KU0063794] (first compound 2 µM, partner dose 0.1 µM)",cell count,[1],61.4%
same,cell count,[2],60%
same,cell count,[3],82.1%
same,cell count,[4],56.4%
same,cell count,[5],95.5%
same,cell count,[6],70.8%
same,cell count,[7],70.2%
same,cell count,[8],76.9%
same,cell count,[9],48.3%
same,cell count,[10],101%
"NCC(=O)Nc1ccc(-n2nc(C(F)(F)F)cc2-c2ccc3c(ccc4ccccc43)c2)cc1 + COC(=O)c1sccc1S(=O)(=O)Nc1ccc(Nc2ccccc2)cc1OC [GSK0660] (first compound 5 µM, partner dose 5 µM)",cell count,[1],64.1%
same,cell count,[2],47.9%
same,cell count,[3],81.2%
same,cell count,[4],53.5%
same,cell count,[5],94.7%
same,cell count,[6],80.7%
same,cell count,[7],64.7%
same,cell count,[8],90.7%
same,cell count,[9],54%
same,cell count,[10],82.6%
"CO[C@@H]1[C@H](N(C)C(=O)c2ccccc2)C[C@H]2O[C@]1(C)n1c3ccccc3c3c4c(c5c6ccccc6n2c5c31)C(=O)NC4 [Midostaurin] + CCCCCCCCCCCC1=C(O)C(=O)C=C(O)C1=O [Embelin] (first compound 0.4 µM, partner dose 6 µM)",cell count,[1],48.3%
same,cell count,[2],64.2%
same,cell count,[3],65%
same,cell count,[4],64.7%
same,cell count,[5],78.3%
same,cell count,[6],64.4%
same,cell count,[7],56.7%
same,cell count,[8],51.5%
same,cell count,[9],52.3%
same,cell count,[10],73.4%
"NCC(=O)Nc1ccc(-n2nc(C(F)(F)F)cc2-c2ccc3c(ccc4ccccc43)c2)cc1 + Oc1nc(-c2ccc(C(F)(F)F)cc2)nc2c1CSCC2 [XAV939] (first compound 5 µM, partner dose 10 µM)",cell count,[1],73%
same,cell count,[2],52.7%
same,cell count,[3],81.5%
same,cell count,[4],86.9%
same,cell count,[5],88.5%
same,cell count,[6],78.3%
same,cell count,[7],94.7%
same,cell count,[8],86.4%
same,cell count,[9],76.9%
same,cell count,[10],55.9%
"Cc1nc(Nc2ncc(C(=O)Nc3c(C)cccc3Cl)s2)cc(N2CCN(CCO)CC2)n1 [dasatanib] + COc1cc(N2CCC(N3CCN(C)CC3)CC2)ccc1Nc1ncc(Cl)c(Nc2ccccc2S(=O)(=O)C(C)C)n1 [NVP-TAE684] (first compound 0.02 µM, partner dose 0.4 µM)",cell count,[1],58.9%
same,cell count,[2],71.5%
same,cell count,[3],51.4%
same,cell count,[4],71.1%
same,cell count,[5],8.65%
same,cell count,[6],69.6%
same,cell count,[7],30.9%
same,cell count,[8],62.1%
same,cell count,[9],25.1%
same,cell count,[10],35.1%
"Cc1nc(Nc2ncc(C(=O)Nc3c(C)cccc3Cl)s2)cc(N2CCN(CCO)CC2)n1 [dasatanib] + CC1(C)NC(=O)N(c2ccc([N+](=O)[O-])c(C(F)(F)F)c2)C1=O [nilutamide] (first compound 0.02 µM, partner dose 5 µM)",cell count,[1],71.1%
same,cell count,[2],105%
same,cell count,[3],54.3%
same,cell count,[4],71.1%
same,cell count,[5],17.1%
same,cell count,[6],71.2%
same,cell count,[7],65.9%
same,cell count,[8],85.6%
same,cell count,[9],54.6%
same,cell count,[10],88.1%
"OCCn1cc(-c2cnc3nnn(Cc4ccc5ncccc5c4)c3n2)cn1 + O=C(Nc1ccccc1)c1cc([N+](=O)[O-])ccc1Cl [GW9662] (first compound 5 µM, partner dose 10 µM)",cell count,[1],95.8%
same,cell count,[2],114%
same,cell count,[3],107%
same,cell count,[4],87.1%
same,cell count,[5],92.4%
same,cell count,[6],87.1%
same,cell count,[7],84.3%
same,cell count,[8],80.4%
same,cell count,[9],98.5%
same,cell count,[10],104%
"C[C@]1(c2nc3c(C(N)=O)cccc3[nH]2)CCCN1 [Veliparib] + CC(C)CCN1c2nc(Nc3cc(F)c(O)c(F)c3)ncc2N(C)C(=O)C1C [BID1870] (first compound 7 µM, partner dose 1 µM)",cell count,[1],63.5%
same,cell count,[2],83.8%
same,cell count,[3],87.5%
same,cell count,[4],92.9%
same,cell count,[5],104%
same,cell count,[6],75.5%
same,cell count,[7],78.9%
same,cell count,[8],69.7%
same,cell count,[9],92.5%
same,cell count,[10],91.6%
"C[C@]1(c2nc3c(C(N)=O)cccc3[nH]2)CCCN1 [Veliparib] + CC1(C)NC(=O)N(c2ccc([N+](=O)[O-])c(C(F)(F)F)c2)C1=O [nilutamide] (first compound 7 µM, partner dose 5 µM)",cell count,[1],89.2%
same,cell count,[2],105%
same,cell count,[3],82.9%
same,cell count,[4],78.3%
same,cell count,[5],77.8%
same,cell count,[6],99.4%
same,cell count,[7],102%
same,cell count,[8],88.9%
same,cell count,[9],116%
same,cell count,[10],73.9%
"C=CCn1c(=O)c2cnc(Nc3ccc(N4CCN(C)CC4)cc3)nc2n1-c1cccc(C(C)(C)O)n1 + O=C(Nc1ccccc1)c1cc([N+](=O)[O-])ccc1Cl [GW9662] (first compound 0.1 µM, partner dose 10 µM)",cell count,[1],78.7%
same,cell count,[2],83%
same,cell count,[3],94%
same,cell count,[4],56.3%
same,cell count,[5],77.6%
same,cell count,[6],76%
same,cell count,[7],81.4%
same,cell count,[8],70.6%
same,cell count,[9],49.7%
same,cell count,[10],77.8%
"C[C@]1(c2nc3c(C(N)=O)cccc3[nH]2)CCCN1 [Veliparib] + CN(NC(=O)CC(=O)NN(C)C(=S)c1ccccc1)C(=S)c1ccccc1 [STA4783] (first compound 7 µM, partner dose 0.03 µM)",cell count,[1],22.9%
same,cell count,[2],79.5%
same,cell count,[3],24.4%
same,cell count,[4],13%
same,cell count,[5],88.1%
same,cell count,[6],75.4%
same,cell count,[7],111%
same,cell count,[8],17%
same,cell count,[9],108%
same,cell count,[10],52.3%
"Cc1nc(Nc2ncc(C(=O)Nc3c(C)cccc3Cl)s2)cc(N2CCN(CCO)CC2)n1 [dasatanib] + Cn1nnc2c(C(N)=O)ncn2c1=O [temozolomide] (first compound 0.02 µM, partner dose 10 µM)",cell count,[1],89.3%
same,cell count,[2],88.5%
same,cell count,[3],71.2%
same,cell count,[4],80.8%
same,cell count,[5],31.4%
same,cell count,[6],74.3%
same,cell count,[7],59.2%
same,cell count,[8],95.6%
same,cell count,[9],42.3%
same,cell count,[10],92.3%
"NC(=O)Nc1cc(-c2cccc(F)c2)sc1C(=O)N[C@H]1CCCNC1 + Cn1cncc1[C@@](N)(c1ccc(Cl)cc1)c1ccc2c(c1)c(-c1cccc(Cl)c1)cc(=O)n2C [tipifarnib] (first compound 0.1 µM, partner dose 0.05 µM)",cell count,[1],78.4%
same,cell count,[2],85.8%
same,cell count,[3],84%
same,cell count,[4],63.7%
same,cell count,[5],57.7%
same,cell count,[6],76.1%
same,cell count,[7],118%
same,cell count,[8],82.9%
same,cell count,[9],37.2%
same,cell count,[10],112%
"CO[C@@H]1[C@H](N(C)C(=O)c2ccccc2)C[C@H]2O[C@]1(C)n1c3ccccc3c3c4c(c5c6ccccc6n2c5c31)C(=O)NC4 [Midostaurin] + Oc1nc(-c2ccc(C(F)(F)F)cc2)nc2c1CSCC2 [XAV939] (first compound 0.4 µM, partner dose 10 µM)",cell count,[1],41.7%
same,cell count,[2],46.8%
same,cell count,[3],70.4%
same,cell count,[4],60.3%
same,cell count,[5],63.7%
same,cell count,[6],56.3%
same,cell count,[7],38.4%
same,cell count,[8],77.4%
same,cell count,[9],36.2%
same,cell count,[10],72%
"Cc1nc(Nc2ncc(C(=O)Nc3c(C)cccc3Cl)s2)cc(N2CCN(CCO)CC2)n1 [dasatanib] + O=S(=O)(c1ccccc1)N(CC(F)(F)F)c1ccc(C(O)(C(F)(F)F)C(F)(F)F)cc1 [T0901317] (first compound 0.02 µM, partner dose 7 µM)",cell count,[1],49.3%
same,cell count,[2],64.1%
same,cell count,[3],49%
same,cell count,[4],88.5%
same,cell count,[5],15.6%
same,cell count,[6],68.9%
same,cell count,[7],39.8%
same,cell count,[8],71.3%
same,cell count,[9],35.9%
same,cell count,[10],54.6%
"Cc1nc(Nc2ncc(C(=O)Nc3c(C)cccc3Cl)s2)cc(N2CCN(CCO)CC2)n1 [dasatanib] + COc1cc2ncnc(Nc3ccc(Oc4ccccc4)cc3)c2cc1OC [SrcI1] (first compound 0.02 µM, partner dose 10 µM)",cell count,[1],38%
same,cell count,[2],60.1%
same,cell count,[3],56.4%
same,cell count,[4],129%
same,cell count,[5],27%
same,cell count,[6],66.9%
same,cell count,[7],42%
same,cell count,[8],61.4%
same,cell count,[9],15.7%
same,cell count,[10],107%
"NCC(=O)Nc1ccc(-n2nc(C(F)(F)F)cc2-c2ccc3c(ccc4ccccc43)c2)cc1 + c1cc(-c2cnn3cc(-c4ccc(OCCN5CCCCC5)cc4)cnc23)ccn1 [Dorsomorphin] (first compound 5 µM, partner dose 2 µM)",cell count,[1],35.2%
same,cell count,[2],46.4%
same,cell count,[3],78.4%
same,cell count,[4],67.8%
same,cell count,[5],88%
same,cell count,[6],72.5%
same,cell count,[7],74.1%
same,cell count,[8],61.3%
same,cell count,[9],62.2%
same,cell count,[10],82.8%
